The other results are listed elsewhere or left out. The full chains were built here from the parent and the listed change. Inactive controls read about 0.05.
B1: TEV protease; numbered along this chain (parent)
chain: MGESLFKGPRDYNPISSSICHLTNESDGHTTSLYGIGFGPFIITNKHLFRRNNGTLVVQSLHGVFKVKDTTTLQQHLVDGRDMIIIRMPKDFPPFPQKLKFREPQREERICLVTTNFQTKSMSSMVSDTSCTFPSGDGIFWKHWIQTKDGQCGSPLVSTRDGFIVGIHSASNFTNTNNYFTSVPKNFMELLTNQEAQQWVSGWRLNADSVLWGGHKVFMVKPEEPFQPVKEATQL

Variants of: B1
Test: raw area under fraction-flipped curve 0-4 h after induction (AUC4h, not background-subtracted), DNA-recorder readout of cleavage of the substrate (dimensionless); higher = more cleavage of the substrate by the protease variant
Conditions: temperature: 34 °C; time window: 0-4 h after rhamnose induction
Method: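 In vivo DNA recorder in E. coli TOP10(DE3) ΔrhaA at 34 °C. Each TEVp single-site mutant (parent TEVp 0) is paired with a single-site variant of the 7-mer TEVs (canonical ENLYFQ|S). The substrate sits between flexible linkers in a Bxb1-sfGFP-TEVs-SsrA fusion, so cleavage stabilises Bxb1 and speeds flipping of a recombination array, read by NGS. The value is the raw area under the fraction-flipped curve over 0-4 h after rhamnose induction (AUC4h), with ≥20 reads per time point. It is not background-subtracted; inactive controls average about 0.047.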
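Further: Bxb1 expression induced with 0.2% (w/v) L-rhamnose at OD600 near 0.5, cultures sampled hourly, flipped fraction per protease–substrate barcode pair counted by paired-end Illumina sequencing.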

Variant | area with substrate CNLYFQS | area with substrate DNLYFQS | area with substrate GNLYFQS | area with substrate HNLYFQS | area with substrate INLYFQS | area with substrate MNLYFQS | area with substrate PNLYFQS | area with substrate QNLYFQS | area with substrate SNLYFQS | area with substrate TNLYFQS | area with substrate VNLYFQS | area with substrate WNLYFQS | area with substrate YNLYFQS | area with substrate FNLYFQS | area with substrate NNLYFQS | area with substrate KNLYFQS | area with substrate LNLYFQS | area with substrate RNLYFQS
S135K | 0.0667 | 0.0437 | 0.067 | 0.0554 | 0.0612 | 0.058 | 0.0661 | 0.0565 | 0.0688 | 0.043 | 0.0514 | 0.0539 | 0.0482 | – | – | – | – | –
I167R | 0.0732 | 0.0404 | 0.0408 | 0.0417 | 0.0476 | 0.0443 | 0.0528 | – | 0.055 | 0.0466 | 0.0546 | 0.0479 | – | 0.0468 | 0.0566 | – | – | –
I167V | 0.0648 | 0.0543 | 0.0604 | 0.0678 | 0.0747 | – | 0.0641 | – | 0.0581 | 0.0986 | 0.0579 | 0.0419 | 0.0591 | – | – | 0.0768 | 0.0524 | –
Q234T | 0.0608 | 0.0793 | – | 0.0804 | – | 0.0512 | 0.0609 | 0.0751 | 0.0783 | 0.067 | 0.0754 | 0.0661 | 0.0647 | – | 0.0728 | 0.0715 | 0.0627 | –
Q234S | 0.0672 | 0.0917 | 0.0685 | 0.0627 | 0.0607 | 0.0842 | 0.072 | 0.0527 | – | 0.0706 | – | 0.0567 | 0.0565 | – | – | 0.07 | – | –
N116L | 0.0643 | 0.079 | – | – | 0.0823 | – | 0.0557 | – | – | 0.0845 | – | 0.0741 | – | – | – | – | 0.0699 | –
T44N | 0.0501 | 0.046 | – | 0.0347 | 0.043 | – | 0.0473 | – | 0.044 | 0.0504 | 0.0409 | 0.038 | 0.0444 | – | 0.0437 | 0.0619 | – | –
D27S | 0.0322 | 0.0678 | – | 0.0475 | 0.0688 | 0.0651 | 0.0548 | – | 0.0726 | 0.0652 | 0.0924 | 0.057 | 0.0511 | 0.0597 | 0.0607 | 0.0585 | 0.0638 | –
S26R | 0.0639 | 0.0641 | 0.0558 | 0.0584 | – | 0.0746 | 0.0552 | 0.0468 | 0.0615 | 0.0544 | 0.057 | 0.0582 | 0.0546 | – | – | – | 0.0585 | 0.0616
G202R | 0.068 | 0.0573 | 0.0459 | 0.0488 | – | – | – | – | 0.05 | 0.0646 | – | 0.0517 | – | – | 0.0708 | 0.065 | – | –
L33H | 0.0626 | 0.0568 | 0.0549 | – | – | 0.0412 | 0.061 | – | – | 0.0611 | – | 0.0613 | 0.0751 | 0.0647 | 0.0589 | 0.0573 | 0.0662 | 0.0556
S209D | 0.0671 | 0.0737 | – | – | 0.0552 | – | 0.0622 | – | – | 0.074 | – | 0.0613 | 0.0492 | – | – | – | – | –
A207T | 0.0832 | 0.0595 | 0.0612 | 0.0698 | 0.0749 | – | 0.07 | – | 0.0691 | 0.0744 | – | 0.0677 | 0.0357 | – | – | 0.0896 | 0.0488 | 0.0565
F133P | 0.035 | 0.0593 | – | 0.0453 | 0.0506 | 0.0568 | 0.0564 | 0.0613 | 0.0554 | 0.0568 | – | 0.06 | 0.0614 | 0.049 | – | 0.0421 | 0.0673 | –
F133M | 0.0195 | 0.0817 | – | 0.074 | 0.0623 | 0.0583 | – | – | 0.06 | 0.0776 | – | 0.0797 | 0.0644 | – | 0.0657 | – | 0.062 | –
C20W | 0.0542 | 0.048 | 0.0585 | 0.0486 | 0.0496 | – | 0.0487 | 0.0365 | 0.0633 | 0.047 | – | 0.051 | 0.0426 | – | 0.057 | – | 0.0538 | –
H143G | 0.0739 | 0.0735 | – | – | – | 0.0492 | – | 0.0641 | 0.0794 | – | 0.0521 | 0.0625 | 0.0421 | – | – | 0.0679 | – | –
E189C | 0.0613 | 0.0353 | 0.063 | – | – | 0.0554 | 0.064 | – | 0.0844 | 0.0258 | 0.0659 | – | 0.0546 | 0.0844 | – | – | 0.0617 | –
E189T | 0.0528 | 0.0685 | – | 0.0627 | 0.0838 | 0.0509 | – | – | 0.0635 | 0.0882 | – | 0.0639 | – | – | – | – | – | –
C111H | 0.0764 | 0.0822 | 0.0692 | 0.0824 | 0.0593 | 0.072 | – | – | 0.0734 | 0.0696 | – | 0.0444 | 0.0582 | – | 0.0747 | 0.0708 | 0.0676 | 0.0631
S130E | 0.0703 | 0.0844 | – | 0.0557 | – | 0.0606 | 0.0634 | – | 0.0644 | – | 0.0674 | – | – | – | – | – | 0.0594 | –
G37A | 0.0646 | 0.102 | – | 0.053 | – | – | 0.0709 | – | 0.0659 | 0.0737 | – | 0.061 | – | – | – | 0.0638 | – | –
P94A | 0.066 | 0.0775 | – | 0.0696 | – | 0.138 | – | – | 0.0579 | 0.0629 | – | – | 0.0558 | – | – | 0.0618 | – | –
P94T | 0.0681 | 0.0728 | – | – | – | 0.068 | 0.0728 | – | – | 0.0688 | 0.0783 | – | 0.0551 | – | 0.0681 | 0.0796 | – | 0.073
H76W | 0.0608 | 0.0761 | – | 0.0553 | – | 0.0578 | 0.052 | – | – | 0.0887 | – | – | – | – | 0.0793 | 0.0563 | 0.0415 | –
K230S | 0.0399 | 0.0788 | – | 0.0624 | 0.05 | – | 0.0556 | – | 0.0709 | 0.066 | – | 0.0536 | 0.0509 | 0.0665 | 0.0567 | – | 0.0761 | –
E195R | 0.0761 | 0.0569 | 0.0721 | 0.0666 | – | 0.0539 | – | – | – | 0.058 | 0.0811 | 0.0634 | 0.0596 | 0.0495 | 0.053 | 0.0613 | 0.0731 | –
P89L | 0.0674 | 0.0667 | 0.0445 | – | 0.0703 | – | 0.0566 | – | – | – | 0.0567 | – | 0.0604 | – | 0.0524 | – | 0.0582 | 0.0683
F140V | 0.0637 | 0.0601 | 0.0806 | 0.0507 | 0.0534 | 0.0661 | 0.0629 | – | 0.0565 | 0.0571 | – | 0.0627 | 0.0543 | 0.0708 | 0.0652 | 0.0581 | 0.0616 | 0.0558
F140L | 0.0538 | 0.0621 | – | 0.0617 | 0.0528 | 0.0663 | – | – | 0.0554 | 0.0676 | 0.0532 | 0.0555 | 0.0654 | – | – | 0.0683 | 0.0513 | –

From the supplement of paper PMC12217912
